Structures can show the parent of a compound that is named as a salt. This is one part of the list.
These compounds were tested on Schistosoma mansoni schistosomula (assay: phenotypic hit in primary schistosomula screen (any phenotype vs DMSO control) (binary (1 = hit, 0 = no phenotype)); higher = active (phenotype induced)). Conditions: 1 µM; time (d): 7.

Row | SMILES | phenotypic hit
1 | CC1(C)S[C@@H]2[C@H](NC(=O)[C@H](NC(=O)N3CCNC3=O)c3ccccc3)C(=O)N2[C@H]1C(=O)O [azlocillin sodium] | inactive: 0
2 | COC(=O)Nc1nc2cc(C(=O)c3ccccc3)ccc2[nH]1 [mebendazole] | inactive: 0
3 | CCCCCCc1ccc(O)cc1O.Nc1c2ccccc2nc2ccccc12 [acrisorcin] | inactive: 0
4 | CC1(C)CC[C@]2(C)CC[C@]3(C)C(=CC[C@@H]4[C@@]5(C)CC[C@H](O)C(C)(C)[C@@H]5CC[C@]43C)[C@@H]2C1 [beta-amyrin] | inactive: 0
5 | Cc1onc(-c2c(Cl)cccc2Cl)c1C(=O)N[C@@H]1C(=O)N2[C@@H]1SC(C)(C)[C@@H]2C(=O)O [dicloxacillin sodium] | inactive: 0
6 | CN1C(C)(C)CCCC1(C)C [pempidine tartrate] | inactive: 0
7 | Cc1cc(O)c(C=O)c2c1C(=O)Oc1c(C)c(O)c3c(c1O2)C(O)OC3=O (stereo unspecified) [norstictic acid] | inactive: 0
8 | CC[N+](C)(C)Cc1ccccc1Br [bretylium tosylate] | inactive: 0
9 | C[N+](C)(C)CCCCCC[N+](C)(C)C [Hexamethonium dichloride] | inactive: 0
10 | CN(C)/N=N/c1[nH]cnc1C(N)=O [dacarbazine] | inactive: 0
11 | O=C(O)c1cccnc1Nc1cccc(C(F)(F)F)c1 [niflumic acid] | inactive: 0
12 | COc1ccc(C(Cl)=C(c2ccc(OC)cc2)c2ccc(OC)cc2)cc1 [chlorotrianisene] | inactive: 0
13 | Cc1oncc1C(=O)Nc1ccc(C(F)(F)F)cc1 [lefunamide] | inactive: 0
14 | CSCC[C@H](NC=O)C(=O)N[C@@H](CC(C)C)C(=O)N[C@@H](Cc1ccccc1)C(=O)O [n-formylmethionyl-leucylphenylalanine] | inactive: 0
15 | CC(C)CCCCCOC(=O)COc1cc(Cl)c(Cl)cc1Cl [2,4,5-trichlorophenoxyacetic acid, isooctyl ester] | inactive: 0
16 | CCOC(=O)[C@H](CCc1ccccc1)N[C@@H](C)C(=O)N1Cc2ccccc2C[C@H]1C(=O)O [quinapril hydrochloride] | inactive: 0
17 | CC(CCc1ccccc1)NCC(O)c1ccc(O)c(C(N)=O)c1 (stereo unspecified) [labetalol hydrochloride] | inactive: 0
18 | CC(C)CCC[C@@H](C)C1CC[C@H]2[C@@H]3CCC4CC(=O)CC[C@]4(C)[C@H]3CC[C@]12C (stereo partly specified) [cholestanone] | inactive: 0
19 | O=C(CCc1ccc(O)cc1)c1c(O)cc(O)cc1O [phloretin] | inactive: 0
20 | CC[C@H](C)[C@H](N)C1=N[C@H](C(=O)N[C@@H](CC(C)C)C(=O)N[C@H](CCC(=O)O)C(=O)N[C@H](C(=O)N[C@H]2CCCCNC(=O)[C@H](CC(N)=O)NC(=O)[C@@H](CC(=O)O)NC(=O)[C@H](Cc3cnc[nH]3)NC(=O)[C@@H](Cc3ccccc3)NC(=O)[C@H]([C@@H](C)CC)NC(=O)[C@@H](CCCN)NC2=O)[C@@H](C)CC)CS1 [bacitracin] | inactive: 0
21 | COc1ccc(OC)c(C(O)CNC(=O)CN)c1 (stereo unspecified) [midodrine hydrochloride] | inactive: 0

Row | SMILES | phenotypic hit
22 | CN1CCN(CCCN2c3ccccc3Sc3ccc(C(F)(F)F)cc32)CC1 [Trifluoperazine dihydrochloride] | inactive: 0
23 | C=CC(C)(O)CCC1C(=C)CC(OC(C)=O)C2C(C)(C)CCCC12C (stereo unspecified) [larixol acetate] | inactive: 0
24 | CNC[C@H](O)c1ccc(O)c(O)c1 [adrenaline bitartrate] | inactive: 0
25 | COC(=O)C[C@H]1C(C)(C)C2(O)OC34CC2C(=O)[C@]1(C)C3CC[C@]1(C)C4=CC(=O)O[C@H]1c1ccoc1 (stereo partly drawn) [8beta-hydroxycarapin, 3,8-hemiacetal] | inactive: 0
26 | Oc1cc(O)c2c(c1)O[C@H](c1cc(O)c(O)c(O)c1)[C@H](O)C2 [epigallocatechin] | inactive: 0
27 | O=C1c2ccc(O)c(O)c2C(=O)c2c(O)ccc(O)c21 [quinalizarin] | inactive: 0
28 | CN(C)CCOC(C)(c1ccccc1)c1ccccn1 (stereo unspecified) [doxylamine succinate] | inactive: 0
29 | COc1ccc(-c2cc(=O)c3cc(OC)ccc3o2)cc1 [6,4'-dimethoxyflavone] | inactive: 0
30 | C[C@H]1[C@H](C)CC[C@]2(CO)CC[C@]3(C)C(=CC[C@@H]4[C@@]5(C)CC[C@H](O)C(C)(C)[C@@H]5CC[C@]43C)[C@H]12 [uvaol] | inactive: 0
31 | C=CC(C1=CC(=O)C(OC)=CC1=O)c1ccc(OC)cc1 (stereo unspecified) [4,4'-dimethoxydalbergione] | inactive: 0
32 | COc1ccc(-c2cc(=O)c3c(O)c(OC)c(O[C@@H]4O[C@H](CO[C@@H]5O[C@@H](C)[C@H](O)[C@@H](O)[C@H]5O)[C@@H](O)[C@H](O)[C@H]4O)cc3o2)cc1 [pectolinarin] | active: 1
33 | Cn1c(=O)[nH]c(=O)c2[nH]cnc21 [3-methylxanthine] | inactive: 0
34 | O=C(C1CCCCC1)N1CC(=O)N2CCc3ccccc3C2C1 (stereo unspecified) [praziquantel] | active: 1
35 | O=C(O)[C@@H](O)[C@H](O)[C@H](O)[C@@H](O)C(=O)O [mucic acid] | inactive: 0
36 | COc1ccc2c(c1)c(CC(=O)O)c(C)n2C(=O)c1ccc(Cl)cc1 [Indomethacin] | inactive: 0
37 | Oc1cc(O)c2c(c1)O[C@H](c1ccc(O)c(O)c1)[C@H](O)C2 [epicatechin] | inactive: 0
38 | C=C1c2c(Cl)ccc(O)c2C(=O)C2=C(O)[C@]3(O)C(=O)C(C(N)=O)=C(O)[C@@H](N(C)C)[C@@H]3[C@@H](O)[C@H]12.O=C(O)c1cc(S(=O)(=O)O)ccc1O [meclocycline sulfosalicylate] | inactive: 0
39 | O=C1C=C(O)C(=O)c2ccccc21 [lawsone] | inactive: 0
40 | COc1ccc2c(c1OC)C(=O)O[C@@H]2[C@H]1c2c(cc3c(c2OC)OCO3)CCN1C [noscapine hydrochloride] | inactive: 0
41 | O=C1c2c(O)cccc2C([C@@H]2O[C@H](CO)[C@@H](O)[C@H](O)[C@H]2O)c2cc(CO)cc(O)c21 (stereo partly specified) [aloin] | inactive: 0

From the supplement of paper PMC2702839
